For 21 molecules, fractional viability results are on record in the supplement of paper PMC5919970.

This assay concerns TYKNU. The assay is described as follows: fractional viability relative to vehicle; TYKNU is a high-grade serous ovarian cancer line; higher = less growth inhibition. Conditions: 72 h, genotype: OPA1 knockout (sgOPA1 #2). In a few lines: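 TYKNU control cells or lentiCRISPRv2 knockout derivatives were plated at 500 cells per well in duplicate into drug-stamped 384-well plates holding a ~2100-compound library at 2 or 10 μM. Culture was in RPMI 1640 with 10% FBS at 37 °C in 5% CO2, with 72 h of drug treatment. Viability was measured by Cell Titer Glo luminescence, and the averaged duplicate treatment wells were normalised to duplicate control wells at the same plate position.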

Structures are written as SMILES. Structures can show the parent of a compound that is named as a salt. Whole data set: some 2,000 compounds, median “fractional viability relative to vehicle” near 0.92, cut for the lowest 2% near 0.11. This is one part of the list.

The molecule `CNC(=O)[C@@H](NC(=O)[C@H](CC(C)C)[C@H](O)C(=O)NO)C(C)(C)C` [Marimastat(BB-2516)] returned a fractional viability (2uM) of 0.952 and a fractional viability (10uM) of 0.73.
For `C[C@]12CC[C@@H]3c4ccc(O)cc4C[C@@H](CCCCCCCCC[S+]([O-])CCCC(F)(F)C(F)(F)F)[C@H]3[C@@H]1CC[C@@H]2O` (some centres not stated) [Fulvestrant] the same measures were 1.2 and 0.949.
The matching figures for `Clc1ccc(C2(c3ccc(-c4cn[nH]c4)cc3)CCNCC2)cc1`: 1.03 and 0.554.
The matching figures for `C=C[C@](C)(O)CC[C@@H]1[C@@]2(C)CCCC(C)(C)[C@@H]2CC[C@@]1(C)O` [Sclareol]: 1.05 and 0.892.
On to `Clc1ccc2nsnc2c1NC1=NCCN1` [Tizanidine HCl], for which the fractional viability is, setting by setting: (2uM) 1.22; (10uM) 1.01.
As for `Cc1cc(Nc2cc(N3CCN(C)CC3)nc(Sc3ccc(NC(=O)C4CC4)cc3)n2)n[nH]1` [VX-680 (Tozasertib, MK-0457)], the fractional viability was 0.817 (2uM) and 0.88 (10uM).
The matching figures for `CC(C)Oc1ccc2c(=O)c(-c3ccccc3)coc2c1` [Ipriflavone (Osteofix)]: 0.805 and 0.958.
For `Nc1nc(OCc2cc(Br)cs2)c2[nH]cnc2n1` [Lomeguatrib], the fractional viability is 0.688 (2uM) and 0.314 (10uM).
The matching figures for `CCCCOc1ccc(C(=O)Nc2ccc(F)cc2F)cc1`: 0.933 and 0.902.
The matching figures for `NC1(Cc2ccc(Cl)cc2)CCN(c2ncnc3[nH]ccc23)CC1`: 1.21 and 0.517.
The matching figures for `N[C@H]1CC[C@H](N[C@@H]2C[C@H]2c2ccccc2)CC1`: 0.794 and 0.89.
Turning to `Cc1cc(C(C)Nc2ccccc2)c2nc(N3CCOCC3)cc(=O)n2c1` (configuration not stated), the fractional viability reads like this: (2uM) 1.06; (10uM) 1.02.
The matching figures for `CCOC(=O)C1=C(N)Oc2ccc(Br)cc2C1C(C#N)C(=O)OCC` (configuration not stated): 1.13 and 0.72.
For `N#C/C(=C1/SC[C@@H](c2ccc(Cl)cc2Cl)S1)n1ccnc1` [Luliconazole] the same measures were 0.989 and 0.818.
The matching figures for `O=[N+]([O-])c1ccc(Nc2nc(N3CCOCC3)nc(N3CCOCC3)n2)cc1`: 0.893 and 0.934.
For the molecule `CCCCOc1cc(C(=O)OCCN(CC)CC)ccc1N` [Oxybuprocaine HCl], the fractional viability is, setting by setting: (2uM) 1.02; (10uM) 0.765.
The matching figures for `O=C1O[C@H]([C@@H](O)CO)C([O-])=C1O.[Na+]` [Sodium ascorbate]: 1.02 and 0.95.
For `CC(C=CC1(O)C(C)=CC(=O)CC1(C)C)=CC(=O)O` (configuration not stated) [Abscisic Acid (Dormin_] the same measures were 0.754 and 0.809.
For `CCN(CC)CCNC(=O)c1ccc(N)cc1` [Procainamide HCl] the same measures were 1.06 and 0.849.
As for `NC[C@H](O)c1ccc(O)c(O)c1` [Noradrenaline bitartrate monohydrate], the fractional viability by setting is: (2uM) 0.863; (10uM) 0.65.
For `CCc1cc2c(cc1CC)CC(NC[C@H](O)c1ccc(O)c3[nH]c(=O)ccc13)C2` [Indacaterol Maleate] the same measures were 0.868 and 0.721.
